Laboratory results published in the supplement of paper PMC12632987.
The full ranking holds about 4,500 sequences; the median of “median log2 fold change of GCK-ALFA target abundance (FLAG IP / Myc IP barcode read proportion)” is about 0.078, and the lowest 2% start at about -0.6. The list shows a part of the results.

B1: GBRAP_139_3741 (protein)
chain: MPPEEIVAAARAAARELRDDPDALADYLVERIAAVDEETAEAITRAVMEALADLPVERILEIVDKVLERLEEAGVPEDKRDVVEAVLNGGLARHAAAEEA
B2: GBRAP_184_5256 (protein)
chain: KTLERVVEVKNVEELKAKMAEIAKEALAEKADVLILLEVEELTKEMIDALFDAIKAMKAAGYTGRVTIGITADLTEEMIDYVLEKADEAGVSVALAIPEE
B3: GBRAP_128_3251 (protein)
chain: PNPEVVKYAEEVVERLKKANPEEARKIAEEFAEYLLTISTEEAETAIEVVEKNLSKLSVEHLEILADVLREARPKFSPEKANLVAGLEVEALNEAEEKEE
B4: GBRAP_26_5453 (protein)
chain: IEELLKEFLEKLKKAAEELLDPELATLANASFENHIGLADLELEENKGNLEKMKQVVLDMKEDILEDLKDLGVPEEVLKKLKEVIDEESEKILKKLEEES
B5: GBRAP_52_6258 (protein)
chain: MREEMRKKAEEIFELVKEGKLEEARKLARELAETSNEEELEIFIDEMAKLALESKKEEIEDLEKLAELVAEELEEAGKPEEIVSLFEARVYGAIYKTSLK
B6: GBRAP_139_3757 (protein)
chain: ARAAAIEATAREFFARMQEDFEAAVKETAAYLASLSDEDRLALTEALARIAAKEGEELAERLKEALTAEVLKLTKDEDVALAIEGTMETAIAREEMRREA
B7: GBRAP_196_5419 (protein)
chain: SLVQEARKINEEAEKRLKATDKEVTVVVSTGDLERHREAVEKAIDYAKEHPDELVLLVFMDDLETALEAARYAKELAEKEGVDLVVEVASRELEEHPDEE
B8: GBRAP_83_6905 (protein)
chain: MKVVAVNITPENGAERVAEAVDIVVEEGWDLEVLVGTSPEEVAAVEDLFDRLNASGKKVNVTVAVVGRDAAAVAAAAARIRAAIAAQPNVVLEELHEEVL
B9: GBRAP_160_4811 (protein)
chain: MEKAEKLLEEAEEDLLETAEAAADLPVADLARLLEAEGYTDILEFEEELNISDETEDKLAAVVDELVARLLANPDLSREERLALVREAAEKMREIVLEEV
B10: GBRAP_64_6480 (protein)
chain: SEEIEKAWDELLDAVTRLLEAFERELPELAPRAQAILDKVKEAKTLSLEEKLDKVLEVADELVALFNDPRVSEELKDLIAEALDKAFALAALLAEAEEEE
B11: GBRAP_11_2926 (protein)
chain: KKEEILKIAELADKLAKAVEKLIEEGVDNEELRKEAEKLLKELTELVKKYGDEADKKDAEIMKELWEKAKEDPENAEEYLEELRNEARVLSGQYLLKAEE
B12: GBRAP_95_7052 (protein)
chain: EDDRLALESTVDVLETYLDLGDEEAARRAAREAVRLLKELGYDAVPDDISLETAKLLLRVAAETESPEDVEALLAALVAKADTEEEKRELRRVAEEALAA
B13: GBRAP_160_4225 (protein)
chain: SEVVEKLVKVFEEEMLEALELIEGESPEEQKVVLDVAAGNIILEAMEIEEATEEMEEVVDEKAEEAREELLEARDASREEQKKLIEEKVKELREELKKLA
B14: GBRAP_125_3016 (protein)
chain: SAEELAAAMALIARALGYSEADVEELAELTLAHGVKGTLIAIALAEGEEEIAELLEQLTEEEVAAVVLEAAAELRAHPDLTPEEVLALLRELAKRALAAS
B15: GBRAP_11_2728 (protein)
chain: KKEKLKELAEEAEKLAKEIAKLIKEGPTEEKLKELAKKAKELAKKAKEIGADKSIVDLLEIAAENLKEAIKDKSNTLEYLKNALAAARTAAGQLLLELEE
B16: GBRAP_11_2613 (protein)
chain: KKEILKEMAELAEEAARVLAELLRVGVDDEELRARARELLERLAELTKKYGDEADKTDVEVALELLEKMEADPERAEEYARQLLAALRVLAGNYLLDIEE
B17: GBRAP_160_4155 (protein)
chain: SEELKKLIKEIKELADEAIKMMEGETPEQAKTIARVTLGDILLLVEENPAVSEEAEDKIGAIADATEATLKANPDLTVEEVKALVKEARDKVVAILEEEA
B18: GBRAP_78_6660 (protein)
chain: KIEELLDKALKLARELRKLAKGLSPEIQNQAAEVEVLVGEALYLYEVEKASKEELIEELKEALEQAKKLLEQLKGVDEEAQKAAEKLIEALKKAIKELEK
B19: GBRAP_95_7020 (protein)
chain: EDDQLAADSLAEVLETYVELGEEEKARRAAEELVRVIAEDPSVRFPPDLSPEAARIVAEAARETLSREEAAAVLRRGAADAADPEVRAIFLEALAEVEAE
B20: GBRAP_52_5963 (protein)
chain: MEARMEALLDELLALRRAGDEAGAEALAREIAETLDDEELRLLGDVLVARIRASDLETAELLLDLAIMLADVLEELGRDPRLASDLLGRAAAAAYALEQA
B21: GBRAP_83_6904 (protein)
chain: ESVVAVNITPENGAARAAEAVDIVVEEGWSLEILVGTDPEEVAAVEDLFAALNASGKKVRVEVAVVGRDEAAVRAAAARIRAAAAAQPNVELERLDEVVL
B22: GBRAP_160_4290 (protein)
chain: KEEAERLKKEIEEIAEEAIEMMKGETREERVAIVRVAGGEVAMELIENENISDETVDRVLEIWDAVAETIAANPDLTDEEIEELIEKAREEAIKIVEEES
B23: GBRAP_160_4245 (protein)
chain: SEELEKIRRDIREEAEVALEALAEVPPSQWGAVLRAMAGNIVQIVIENPSMTDEMVEKVDELAEEMVERLLAARDASPEELRRLLEEGVERIIEEIEKML
B24: GBRAP_184_5027 (protein)
chain: TVLEAEIEAKDLAELEAKLAALAAEVKGSGADLVVSLKLENPTEEMVRTALAGLGAIKAAGNVSRVTVGFEGELSEELEEVALAAGDENGVNVVLPISDE
B25: GBRAP_160_4219 (protein)
chain: METIERIVEIFRENFLEALELIEGESEEERKVILDVAVGEIILEVDSDENVTDEMEEVVDEKARELAEELLKLKNASEEEKRALIEEKAEELREELEKLA
B26: GBRAP_186_5394 (protein)
chain: EEDEEEEDKLIEELEKENDIVIIVYLDSSKSLEEKKKIMDNDAEAMAALAKETGKKVALVFRVVDDEENLKELKEHVEKLNKEYKAKSGVTVKLIGFKKE
B27: GBRAP_35_5521 (protein)
chain: SSDTTTVEMLVATIEDLTLAVPDMPVEDATKIANSLIKDAEELAEDVKNNVEGLKKLRDALKALRDALEKHYGDNPLAQETIAKIDKLIAKIDELIAKAK
B28: GBRAP_96_7088 (protein)
chain: ELEEVKKLVKKLLEALNTDPELARKYAKELLKYPPELIAKALKELGVSDEEAVELFRILYEEDPSRAADLIDALTEIVSSEAVVKMVEIAIELEKRREEE
B29: GBRAP_26_5424 (protein)
chain: ISEAFDEAIERISAAAKELLDPETAAALRAVVTDEILEAEEKIEEENLSEEEVEKLLEEVLKEIEEALKELGVPEEKRKKLVEVAREELEKVLKKIKEER

Each binder was assayed against GABARAP, O95166 (assay: median log2 fold change of GCK-ALFA target abundance (FLAG IP / Myc IP barcode read proportion) (log2 ratio); each designed protein is fused to an ALFA-tag nanobody in HEK293 cells to bring the named protein to FLAG-tagged glucokinase (GCK); Myc marks an untargeted standard; higher = target protein stabilised (more abundant)). Details: target protein: 3xFLAG-MCP-GCK-ALFA reporter; HEK293 landing pad (RPLP).
Chain of GABARAP, O95166 (O95166 whole entry, the tested form may be a part): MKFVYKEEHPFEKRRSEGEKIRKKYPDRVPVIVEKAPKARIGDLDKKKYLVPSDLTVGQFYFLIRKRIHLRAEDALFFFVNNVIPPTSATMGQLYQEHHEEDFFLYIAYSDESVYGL
Method in brief: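 Sequencing of reverse-transcribed, amplified circular RNA barcodes from anti-FLAG and anti-Myc immunoprecipitates provided the readout for an ALFA-nanobody-fused binder library recombined into HEK293 landing-pad cells. Those cells were induced with 2 μg mL^−1 doxycycline, transfected with a plasmid expressing a FLAG-tagged target and a Myc-tagged standard, and lysed after 48 h. Target abundance is the per-binder median log2 ratio of FLAG to Myc barcode read proportions. Only barcodes at a proportion of ≥10^−7 in both replicates and binders with ≥3 barcodes per replicate were kept, with a 10^−6 pseudocount added before the two replicates were pooled.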
B1 was tested, and the “median log2 fold change” value was 0.168. For B2, the “median log2 fold change” value was -0.0129. B3 was tested, and the “median log2 fold change” value was 0.356. B4 was tested, and the “median log2 fold change” value was 0.169. B5 was tested, and the “median log2 fold change” value was 0.0746. For B6, the “median log2 fold change” value was 0.303. B7 was tested, and the “median log2 fold change” value was 0.0489. B8 was tested, and the “median log2 fold change” value was -0.0297. B9 was tested, and the “median log2 fold change” value was -0.492. For B10, the “median log2 fold change” value was -0.25. B11 was tested, and the “median log2 fold change” value was -0.0151. For B12, the “median log2 fold change” value was 0.13. In the case of B13, the “median log2 fold change” value is reported as -0.48. In the case of B14, the “median log2 fold change” value is reported as -0.274. With B15 the “median log2 fold change” value was 0.0933. In the case of B16, the “median log2 fold change” value is reported as 0.247. B17 was tested, and the “median log2 fold change” value was -0.546. In the case of B18, the “median log2 fold change” value is reported as 0.268. In the case of B19, the “median log2 fold change” value is reported as 0.146. In the case of B20, the “median log2 fold change” value is reported as -0.635. With B21 the “median log2 fold change” value was -0.0179. With B22 the “median log2 fold change” value was -0.258. For B23, the “median log2 fold change” value was 0.179. For B24, the “median log2 fold change” value was 0.231. For B25, the “median log2 fold change” value was -0.349. B26 was tested, and the “median log2 fold change” value was -0.016. For B27, the “median log2 fold change” value was 0.173. With B28 the “median log2 fold change” value was 0.114. In the case of B29, the “median log2 fold change” value is reported as 0.205.
